Consider one compound from patent US20150087619A1, “METHOD OF MITIGATING VIRUS ASSOCIATED END-ORGAN DAMAGE” (CHIMERIX, INC., priority 2012, published 2015).

The series is described as follows: Pharmacokinetic analysis in pediatric and geriatric patients. In kind it is in vivo, human. The settings on record: pediatric patients aged 4-16 years; approx. 1-4 mg/kg once or twice weekly. As to the method:
This study population included five children. Pediatric patients received approximate doses of 1, 2, 3, or 4 mg/kg given once or twice weekly. […] Variability in PK parameters for this age group was high with respect to AUC, Cmax, and CL/F. In general, pediatric patients had lower plasma concentrations of HDP-CDV and CDV than adult healthy volunteers or patients on the same dose and schedule.
The study population also included 3 elderly adults. Geriatric patients received approximate doses of 1, 2, or 3 mg/kg given either once or twice weekly. Similar to pediatric patients, the medical condition of geriatric patients varied widely. Variability in PK parameters for this age group was high with respect to AUC, Cmax, and CL/F. In general, geriatric patients had higher plasma concentrations of HDP-CDV and CDV and lower CL/F than those observed in younger healthy volunteers or patients.
High CDV CL/fm values were also observed in children.

`CCCCCCCCCCCCCCCCOCCCOP(=O)(O)COC(CO)Cn1ccc(N)nc1=O` (stereo not shown) [HDP-CDV]: the “plasma concentrations of HDP-CDV and CDV vs adult healthy volunteers or patients” value is reported as “lower”.
